The RNAGym collection of RNA variant scans (doi:10.1073/pnas.2313332121)
Variants at the background level are over-represented here.

B1: TPR 5TU (parent)
chain: GGAUCUUCUCGAUCUAACAAAAAAGACAAAUCUGCCACAAAGCUUGAGAGCAUCUUCGGAUGCAGAGGCGGCAGCCUUCGGUGGCGCGAUAGCGCCAACGUUCUCAACUAUGACACGCAAAACGCGUGCUCCGUUGAAUGGAGUUUAUCAUG

Variants of: B1
Assay: polymerase ribozyme fitness, log enrichment relative to wild type (log ratio); higher = more active; in vitro selection for triplet polymerase activity
Procedure, shortened: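 Only genotypes with ≥10 input reads and ≥1 read per output were kept after Illumina sequencing of input and output libraries. These libraries were PCR-built, transcribed mutants of each subunit of a heterodimeric triplet polymerase ribozyme, each put through one triplicate in vitro selection round with frozen incubation at −7 °C, gel excision of extended constructs, streptavidin-bead capture and RT-PCR. Fitness is a logarithmic ratio of genotype enrichment to wild-type enrichment, from inverse-variance-weighted replicate averages, with the logarithm in base 2.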

Polymerase ribozyme fitness (log ratio), -4.02:
G11U A41U C93U C99A U104G C118U G140U G152U

Polymerase ribozyme fitness (log ratio), -3.81:
G11A A91G

Polymerase ribozyme fitness (log ratio), ≤ -4.2:
G11U A19U C32U U33C G74A C85U G141U C149A
C10U C14A G48C U56A C93A U109G A142G
C10G G62C G65C C93U A121G
G11A A37G C54U A66C G67C A73G G94U A113U C118G U135G G141A
C10G A41G A66G G88C C108U
G11C C63U C79U G86C
C10A C54A A91C C105A C129A G143C
C10A C79A G83C
G11C A39G C57G C96U G141U
C10G C54U G94C
G11C C54A U101G C103G U144G
C10G A20U C72G G84A A97G A98G A110U U151A
A12C A29G C35U C51U C93U C116A U135G
C10U A26G A37U G68A G81C
C10A C93G U146C U151G
C10U U53C U55A G86A G88C
G11U C14G A21C A28U G71A C85U U104G G140C
A12C A47U U53A C57G U78A
G11A G88A G141U
C10G C43U G50A U82C C105G A138C G141C
C10G A19G A30C U78G G92C C132U
A12C A89G C95U A97C A120G U135G
G11U A60C U61A C69G G74A U146G A150C
C10U C36U C63A C118U
C10U A47G G94U A147G
G11C A22C G80A C108A U130A U146G A150G
A12C C18U C36U C93A U104A C131G
C10G U15G A49C A60C C69U A73U C96U
G11C C51U C85U G140C
G11C A17U C79G G86U U101G C125U G152A
C10G A22G C51A U53A C54A C72A
C10G A30U U45C C75U G88C G143C
C10G A29C C38G A52U C87U G88U C93U A110U
C10U U45C C63U U77C C87G A89U
A12C A37C G86U A142U
C10G A91G A97G C108A C118G
A12C A40G G59U A60C C118G
G11A A41U G46A G68A U78C
C10G C63U A89U C95U A138C A147U
A12C C38A U55G U61G G84A A107U C125U
C10G G80C C87U
A12C A49U G67U C75U A91U G92A A98G A106C G143U
A12C A39U G59A A91U C93U A150C
C10A G59A C63U C93G G140U
C10U G58A G92U A97C A107G U134G U135G
C10U G58U G83A A89C A110G U148A
G11A A23U A29U A41C G50A U101A U102A A121G U135G
G11A U33C A47U C99U C125U G143U
C10G A49U G50C G65A G70C C96U A147C
C10G A73U
G11A A24G U53A C69U U77G C87U A97U
C10U U55G U90A C103G G143C
C10U A40G C87G U144C
C10U A19U G59C A73U C79U C93A C96A A147G
A12C C27A C36U C72G C118A
A12C A21G A23C A24C A30U C54U G59A A73G G83A
C10A C36A U55G G59U
C10U C32U G68U G74A U78A G92A C125A G140U U145G
C10G C54G C85U C95G U104G
G11C C87U C93A A121C
A12C C54U G86C G94U C103G G117C G133C
C10G C57A C96A
C10U U56A C93U A122U C149U G152U
C10G A41G C57U C85U A97C U109A
A12C C14G C57U A66C G71A G94U
A12C A17G A23C A26U A37U C103A
G11C G42A G88C U102C G126U
G11C C27U U31G A41C A47U G68C G94C A120U
C10U C35A G42C G59C A66G A120G A122U G136A
C10U A26C U31G A91G C95G C108U
C10U C18A C35A U53G C93G
C10U A22C C36A A49C U53C C57G G58A G86U C93U G117U
C10U G59A C93U A137G
G11A C93G
C10G G68A U82G A142G
C10G A64C G65U G86U C93G A97G
C10U U13A C69A G83C U109C G143C U145G
G11A A26U U82C C87U

Polymerase ribozyme fitness (log ratio), -1.85:
G11C C75U

Polymerase ribozyme fitness (log ratio), -3.83:
C10U C57U C96U

Polymerase ribozyme fitness (log ratio), 0.0783:
A12C

Polymerase ribozyme fitness (log ratio), 0.246:
G11A G141U
